According to the supplement of paper PMC11417369:
± gives the standard deviation of the averaged measurements. This is one part of the list.

System: PfAP2-LT AP2 domain (GST-tagged)
Experiment: gcPBM binding intensity (ln(normalized median fluorescence intensity)); higher = stronger DNA binding
Summary of the method: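 Alexa488 anti-GST antibody, scanned at 488 nm, detected GST-tagged P. falciparum DNA-binding domains that had been expressed in E. coli and incubated for 1 h on an Agilent 4 × 180k array. The array carried primer-extended double-stranded 36-bp intergenic genomic probes and negative controls. Binding intensity is the highest Masliner-normalised natural-log median intensity across replicate spots of either orientation of each probe.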

Sequence | gcPBM binding intensity (ln)
ATATGTATTTATATATGTTTGAATTTTTTTTTTTTT [CACACA_negctrl_site5] | 8.46 ± 0.47
GTTCGAAGTATAATTTGTACATATAAAATGGTTCCC [XGTACX_site382] | 8.73 ± 0.38
ATTTGATCAACAAAACGTACACATATTTTCATGTGT [XGTACX_site447] | 9.71 ± 0.29
AAAACAGTGACAACTCGTACTTATATTTTTTTTTGT [XGTACX_site4968] | 8.88 ± 0.41
AGGCCCTATGTTGTTACACACATAGAATGATACATC [CACACA_site1266] | 9.06 ± 0.33
TAAAATTTAAAATATACACACAAAAAGTTATTACAA [CACACA_site4080] | 8.68 ± 0.52
ATTAAATAATAATAATGTACGTATTATATTAATACA [XGTACX_site5439] | 8.63 ± 0.43
AAATTATTATGAAATGGAAAATGCATAAATTGTTTT [XGTACX_negctrl_site206] | 8.64 ± 0.42
ATTCTTTACTCATAAAATTATATTATATAAACTTTT [XGTACX_negctrl_site554] | 8.45 ± 0.52
CTCTTTAAAAATATGGGTACAAAAAAAAAAAAAATA [XGTACX_site6185] | 8.32 ± 0.6
AATACGACAAACAAATGTACAAATAAATATTCGCGT [XGTACX_site6427] | 9.24 ± 0.3
TTTTCTTTTAATATTTTTAATAATTATATTTTGAAA [XGTACX_negctrl_site495] | 8.13 ± 0.33
TGAGAAAATTAAAAGGTGCTCAGAAATTTTATATTA [GTGCAC_site9954] | 8.54 ± 0.54
AAATTACTAATGTGCACACATACTAACGTTTAAATA [CACACA_site3572] | 9.26 ± 0.33
AAAAATGTAAAGTGCGTGCACAAAATATTTGGAAAA | 9.07 ± 0.51
TATATTTATTTATATGTATGCATGTCTGTATATGCT [TGCATGCA_site339] | 8.93 ± 0.47
CAAAGATAAAATGATGCACACAAAAGGGTGTAATAT [CACACA_site8499] | 9.32 ± 0.37
AAAGTACAATCATAATCACACGTGTCTATTATATAC [CACACA_site8103] | 9.37 ± 0.49
ACATGGTTTACACGTGCATGTGGATGACTGGACATT [TGCATGCA_site640] | 9.08 ± 0.42
AATATTTAATTCAACACACATACATATTTATTAAAA [CACACA_site2342] | 8.69 ± 0.45
GCATAAATCAGACACACACACATATATAAATATGTA [CACACA_site7187] | 9.73 ± 0.3
TAATATGAAAAGTGTACACACGCACAGACAAAAAAA [CACACA_site5594] | 9.34 ± 0.36
ATTCATTTTAATATGGGTACATAAAAATAAAAAGAA [XGTACX_site2801] | 8.55 ± 0.54

Sequence | gcPBM binding intensity (ln)
TATGATGATGAATAACGTACAAAAAAATTAATCACC [XGTACX_site6794] | 9.05 ± 0.43
TACATTTTTATTTTTACACACATATTTATTTATATA [CACACA_site6609] | 8.99 ± 0.48
TGTTTATTTTTTTTATGTACTTATTTTTTATTGCAT [XGTACX_site719] | 8.98 ± 0.45
ATAAAATCTTAATCAACAAACAAACAAAAAAAAAAT [CACACA_negctrl_site1161] | 8.77 ± 0.48
GATTTTCATATTTTTTGTACTTACATTTTTCTATAC [XGTACX_site6002] | 9.02 ± 0.45
TATGTGATATATTTATCACACATTATATATATATAT [CACACA_site5103] | 8.97 ± 0.16
GGCATACACAGACACACACACACACCCACATATATA [CACACA_site591] | 10.2 ± 0.28
TAATTATCACATTGCACACACATTTCCTTTTACATT [CACACA_site3443] | 9.44 ± 0.28
AATAAATAAATAAGTACACACATATATATATATATA [CACACA_site284] | 9.87 ± 0.29
AAAAGAATGAAACATAATAAATTACATTAAAATAAT [CACACA_negctrl_site897] | 8.76 ± 0.62
ATTTTTTTATTTTGTGCACACACATAAAAATATATA [CACACA_site762] | 9.04 ± 0.49
TCTATTTTTCTAATTTGTACATAGCTTTGAGTTAGT [XGTACX_site8977] | 8.8 ± 0.43
AACTTATTAAGCCCTCCACATTTCTCTACTACAACT [CACACA_negctrl_site1552] | 8.88 ± 0.43
AGATAAAATATATACACACACATAAATACGTACAAA [CACACA_site1086] | 9.51 ± 0.29
AACTTCTTTTTTATAACACACAAAATATATATACAA [CACACA_site282] | 8.76 ± 0.35
TTTTTTTTTTGTAATTGTACTTTTTTAATACTTCTA [XGTACX_site4195] | 8.55 ± 0.52
TATACATATATATACACACACATATATATATATATA [CACACA_site4] | 9.8 ± 0.16
TATATATATATATTCACACATAAATATATGCACCCA [CACACA_site4263] | 9.26 ± 0.24
ATTTTTGTGACTAAGACATGCATAAGAGTAAAGAAA [TGCATGCA_site619] | 8.68 ± 0.43
ACATATATTATATAACGTACATAACACTATTTCCTT [XGTACX_site6938] | 8.83 ± 0.48
ATCTAAACCTTTTGAGCACACATATATATATATATA [CACACA_site8526] | 9.71 ± 0.19
TAATATCATTTAGACACACACTCTTACAATCTGTAA [CACACA_site2590] | 9.02 ± 0.38
AATCATTTATGGAAAGCATGCTAAATTAGAGTATAC [TGCATGCA_site172] | 8.87 ± 0.4

Sequence | gcPBM binding intensity (ln)
ATGGGGAATAATGAATGTACACAAATAAAAAGTTGG [XGTACX_site4015] | 8.88 ± 0.67
TAATTTTTTTAAAACACACAAATATGTAAATATGTA [CACACA_site7769] | 8.55 ± 0.41
TAAAAATAAAAATAACGTACATACATACTTATATAT [XGTACX_site3745] | 8.61 ± 0.4
TAAGTCGCCAAAAGGTGTACACATAATGCATTATCA [XGTACX_site8852] | 9.03 ± 0.36
AGTATAGTTATAAATTGTACATATTATTTATTTTAT [XGTACX_site949] | 8.7 ± 0.39
ATAGAACTGAATAAATCTATAAATAAATATATATAT [GTGCAC_negctrl_site604] | 8.62 ± 0.49
TATTATAATGACTATAGTACATAATATTATTTATAT [XGTACX_site1977] | 8.62 ± 0.4
CTCCACAAACAAATCGCACACCCAACCCAACATATA [CACACA_site2650] | 9.68 ± 0.34
AATAAATATAAATACACACCCATATATATATATATA [CACACA_site5436] | 9.59 ± 0.4
TTAAAAAAAAAAAAAAGTACACACTTATAAAATATT [XGTACX_site1630] | 8.62 ± 0.47
ACCAATAAATATTTGGTGCATACATATATATATATA | 9.425 ± 0.021
TCATACCTACATAAAAAAAGGGAAACAAAATGTCAT [XGTACX_negctrl_site34] | 8.7 ± 0.4
CTAAATAAAGTTAACACACACATAATATTTATATGT [CACACA_site6368] | 9.22 ± 0.36
TACATAAACATTTATACACACATTAGATATACATAT [CACACA_site6329] | 9 ± 0.37
TCAAAGAGTAGAAAGGTGCTTATGAACGAGATAATT | 8.88 ± 0.49
TATTATAATTTTATATGTACACATATATAAATATAT [XGTACX_site4054] | 8.7 ± 0.33
TTTTACATATATATATGTACGAAAATGAAAAGGTCA [XGTACX_site5576] | 8.78 ± 0.35
AAAGTTACATTCGACACACACATAACAACTAAATAA [CACACA_site3419] | 9.32 ± 0.38
TTTATTTATTAATACACACACACACCCCCACAAAAT [CACACA_site240] | 10.1 ± 0.22
ACAAGAACAGAACGTACACACACATATATATATATA [CACACA_site9143] | 10.175 ± 0.0071
ACCTAATTTTTATATTGTACATAATATAATATATAT [XGTACX_site1715] | 8.95 ± 0.32
ACCTACACAAGCATTAAACACACAAAAGGGATACTT [CACACA_site8273] | 9.22 ± 0.4
AACTAAATTTATAATTGTACATTAAAATATGTATTA [XGTACX_site479] | 8.54 ± 0.51

Sequence | gcPBM binding intensity (ln)
ACATATACATTTATATGTACTCATTTATCTTATGTA [XGTACX_site6594] | 8.99 ± 0.42
TTTTTTAAAACTTCAAAAAGAGCACTTGAATTTTTT [GTGCAC_negctrl_site455] | 8.11 ± 0.59
AAATATTACATACACGCACACATTAATATATTTAAA [CACACA_site2603] | 9.15 ± 0.36
TATATACCTATATATACACACAAATACATAAGCTTC [CACACA_site1369] | 9.09 ± 0.35
AAATATTTTTTAATGTGTACATAGAACATATATATA [XGTACX_site3136] | 8.52 ± 0.38
ATAATATATATATTATGTACATATAAATTTTTTTTT [XGTACX_site5826] | 8.7 ± 0.42
TATAACTATAAAAGGAGTACTATATATATATATATA [XGTACX_site1388] | 9.37 ± 0.014
ACTTATTTATTTTTAGTGCATTTAGTTTTATTTTAT | 9.03 ± 0.41
AGTATACACAAACACACACACACAAAAAAAAAAAAA [CACACA_site8036] | 9.56 ± 0.31
TATTTGCAATGCAAATGTACATGAATTTTTTTAATG [XGTACX_site7474] | 8.46 ± 0.39
TAAAAAGAAAAAAAGAGTACAAACAAAATAATAATT [XGTACX_site6071] | 8.99 ± 0.46
AATAGTACAAAAAAAAAAAAAAAAAAAAAAAAAAAA [CACACA_negctrl_site1376] | 8.16 ± 0.31
TCTACAAAATTATCATGTACATATTATTATAATTAT [XGTACX_site6585] | 8.68 ± 0.49
TTTTTTAAAAAACAAACACACACGTAGAAAAAAAAA [CACACA_site826] | 8.94 ± 0.46
TAATTATATGGATACACACACATACATTTACATAAC [CACACA_site5744] | 9.39 ± 0.29
TATAAATATAAATACACACACACACGCCAAAGCGTA [CACACA_site6181] | 9.6 ± 0.32
TTTTTTTATTTTTGTTGTACTTATAATTCTGTAAAA [XGTACX_site7344] | 8.4 ± 0.51
AAGAAAAATGTGTTTTTTTTTTTTTTTTTTTTCAAT [TGCATGCA_negctrl_site404] | 8.21 ± 0.42
TGTGAAATAAAATTTATACACACTTGCTAAATGATC [CACACA_site181] | 8.73 ± 0.37
CTTTTTTTTTTAAATAGTACTTTCTCGTATACTCAT [XGTACX_site1842] | 8.79 ± 0.47
